# About 230 (0.21%) of roughly 110,000 compounds showed an effect of 50% or more. The list shows a part of the results.
# Target: DPAP1 (Plasmodium falciparum, UniProt Q8IIJ9)
# Assay: primary screen, percent inhibition; read by cleavage of a fluorogenic dipeptide substrate; higher = more effect of the substance
# Design: species or system P. falciparum D10 trophozoite lysates; single well
# 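Note: 30 min substrate incubation versus DMSO and 10 µM JCP410 controls.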
# DPAP1, sequence (Q8IIJ9 whole entry, looked up): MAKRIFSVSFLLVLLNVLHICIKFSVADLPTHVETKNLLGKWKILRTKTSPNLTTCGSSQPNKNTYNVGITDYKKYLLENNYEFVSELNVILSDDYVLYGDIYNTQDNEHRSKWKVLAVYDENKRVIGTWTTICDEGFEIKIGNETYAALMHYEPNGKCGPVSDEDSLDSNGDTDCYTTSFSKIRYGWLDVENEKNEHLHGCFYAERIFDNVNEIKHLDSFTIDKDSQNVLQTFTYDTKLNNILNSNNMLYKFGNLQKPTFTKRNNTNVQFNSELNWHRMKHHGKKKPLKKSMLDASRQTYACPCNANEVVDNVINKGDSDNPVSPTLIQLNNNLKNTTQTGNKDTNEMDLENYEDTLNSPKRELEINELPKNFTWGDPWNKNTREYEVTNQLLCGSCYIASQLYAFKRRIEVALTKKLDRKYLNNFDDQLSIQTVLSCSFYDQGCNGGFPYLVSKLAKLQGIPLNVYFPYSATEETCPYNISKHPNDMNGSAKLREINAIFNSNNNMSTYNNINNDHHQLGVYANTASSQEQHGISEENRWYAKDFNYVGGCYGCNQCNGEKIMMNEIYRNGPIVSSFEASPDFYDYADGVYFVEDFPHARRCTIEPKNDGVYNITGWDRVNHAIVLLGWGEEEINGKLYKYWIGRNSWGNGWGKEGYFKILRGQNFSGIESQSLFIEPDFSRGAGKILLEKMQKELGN
row,SMILES,% Inhibition @ 10 uM
1,CSCCCN1CC(C)OC(C)C1 (stereo not drawn),0.217%
2,O=C1C2C(C(=O)N1c1ccccc1Br)C1C=CC2C12CC2 (stereo not drawn),-2.8%
3,CCN(CC)CCCNC(=O)C1CCC(CNS(=O)(=O)c2ccc(Cl)cc2)CC1 (stereo not drawn),2.35%
4,COc1ccc(N(CC(=O)NC2CCCCC2)S(=O)(=O)c2ccccc2)cc1OC,3.26%
5,COc1ccccc1OCCSc1nc2ccccc2[nH]1,0.716%
6,COc1ccc(NC(=O)CN(c2ccccc2F)S(=O)(=O)c2ccccc2)cc1OC,-1.95%
7,Cc1ccc(N2C(=O)CSC2=S)cc1,0.317%
8,CCc1nn2c(=O)cc(COc3ccc(/C=C4/C(=N)N5C=C(C)SC5=NC4=O)cc3)nc2s1,-2.19%
9,CC1CCN(C(=O)C2CCCN(S(=O)(=O)c3ccc4[nH]c(-c5ccccc5)nc4c3)C2)CC1 (stereo not drawn),0.309%
10,O=C(Nc1nc(-c2ccccc2)cs1)c1ccccc1,-7.01%
11,CC1=C(C#N)C(c2ccccc2F)C2=C(O)c3ccccc3C2=N1 (stereo not drawn),-4.49%
12,COC(=O)c1sccc1NC(=O)Nc1cn(C)c(=O)c2ccccc12,6.99%
13,Oc1cc(-c2ccccc2)nn1-c1nc(-c2ccccc2)cs1,0.634%
14,CC12CCC(c3c1nc1ccccc1[n+]3[O-])C2(C)C (stereo not drawn),5.69%
15,Cc1ccc(CS(=O)Cc2ccc(C(=O)NCCN(C)C)o2)cc1 (stereo not drawn),0.401%
16,O=C(Nc1sc2c(c1C(=O)NCC1CCCO1)CCCC2)c1ccccc1F (stereo not drawn),1.93%
17,CC(CNC(=O)Cn1cccc1C(=O)c1ccccc1)c1ccccc1 (stereo not drawn),10.1%
18,CCOC(=O)CCS(=O)(=O)c1ccc(Br)cc1,4.12%
19,CCOc1cc(C2C(C#N)=C(N)Oc3[nH]nc(-c4cccs4)c32)cc(Br)c1O (stereo not drawn),-1.98%
20,COC(=O)c1cc(S(=O)(=O)NCCc2ccc(Cl)cc2)cn1C,-2.84%
21,Clc1cccc(N2CCN(Cc3ccco3)CC2)c1,-1.07%

row,SMILES,% Inhibition @ 10 uM
1,Cc1ccc(/C(=C\N(C)c2ccccc2)S(=O)(=O)N2CCOCC2)cc1,-0.231%
2,CCOc1ccccc1CNC(=O)Cn1sc2ccccc2c1=O,-9.13%
3,N#CC1=C(N)N(c2ccccc2)C2=C(C(=O)CCC2)C1c1cccnc1 (stereo not drawn),0.687%
4,CCN(C(=O)c1cccc(C)c1)c1ccccc1C,-0.856%
5,CCOc1ccc(-n2c(CN3CCN(C(=O)c4ccco4)CC3)nc3ccccc3c2=O)cc1,-3.56%
6,Cc1ccc(-c2nc(CS(=O)(=O)CC(=O)NCCN3CCOCC3)c(C)o2)cc1,-0.138%
7,Cc1cccc(-c2noc(CNC(=O)c3ccccc3)n2)c1,5.29%
8,N#C/C(=C\N1CCOCC1)c1ccccc1,1.63%
9,O=S(=O)(c1ccc(Sc2ccc(Cl)cc2)cc1)c1ccc(Sc2ccc(Cl)cc2)cc1,-3.55%
10,COc1ccc(C2CC(C(F)(F)F)n3ncc(C(=O)Nc4ccc(C(C)O)cc4)c3N2)cc1OC (stereo not drawn),0.147%
11,Cc1cccc(N(CC(=O)N2CCN(c3ccccc3F)CC2)S(C)(=O)=O)c1C,9.11%
12,COC(=O)c1c(C)sc2c1OC(N)=C(C#N)C2c1sc2ccccc2c1C (stereo not drawn),2.62%
13,O=C(Nc1ccccc1)N1CCc2scc[n+]2-c2ccccc21,-1.17%
14,CNC(=O)CCCc1nc(-c2ccccc2OC)no1,-1.15%
15,O=C(Nc1ccc(Cl)c(C(F)(F)F)c1)c1cccs1,2.26%
16,O=C(CN1C(=O)c2ccccc2C1=O)N1CCN(c2ccc(Cl)cc2)CC1,-0.0555%
17,O=C(Nc1cccc(Cl)c1)Nc1cccc(C(F)(F)F)c1,1.96%
18,Nc1c(C(=O)c2ccccc2)sc2nc(-c3cccs3)cc(C(F)(F)F)c12,-3.13%
19,CC(=O)c1ccc(NC(=O)COc2cc(C)cc(C)c2)cc1,-2.73%
20,CN1CCN(c2ccc3nnc(CCC(=O)NC4CCN(Cc5ccccc5)CC4)n3n2)CC1,-0.264%
21,Cc1ccc(N(CC(O)CN2CCOCC2)S(=O)(=O)c2ccccc2)cc1 (stereo not drawn),-1.26%

row,SMILES,% Inhibition @ 10 uM
1,CCCN1CCC(NC(c2ccccc2)c2ccc(Cl)cc2)CC1 (stereo not drawn),-7.93%
2,O=C(/C=C/c1ccccc1)N1CCCCC1,4.81%
3,CC(C)C[C@H](NC(=O)CNC(=O)OC(C)(C)C)C(=O)NCC#N,-3.48%
4,COc1ccc(Cl)cc1NC(=O)CCN1CCN(c2ccccc2C)CC1,1.62%
5,COc1ccc(C)c(N2C(=O)CC(N3CCN(c4ccc(F)cc4)CC3)C2=O)c1 (stereo not drawn),-6.05%
6,CCN(CC)C(=O)CN(c1ccccc1)S(=O)(=O)c1ccc(C)cc1,-0.796%
7,Nn1c(SCC(=O)O)nnc1-c1ccncc1,-4.17%
8,O=C(CN1N=C(c2ccccc2)CCC1=O)NCCc1ccc(Cl)cc1,0.514%
9,COCCOC(=O)c1cnc(Nc2nc3ccccc3o2)nc1C,3.36%
10,COC(=O)c1cn(CCc2c[nH]c3ccc(OC)cc23)cc(C(=O)OC)c1=O,3.47%
11,COc1ccc(Br)cc1/C=c1\sc2nc(-c3cccs3)nn2c1=O,3.54%
12,CCOc1cc(C(=O)NC2CCCCCC2)cc(OCC)c1OCC,-2.37%
13,O=C1C2C(c3ccccc3)N(CN3C(c4ccccc4)C1C3c1ccccc1)C2c1ccccc1 (stereo not drawn),0.716%
14,COc1cc(C2C3CN(C)CC=C3C(C#N)=C(N)C2(C#N)C#N)ccc1OCc1ccccc1 (stereo not drawn),2.19%
15,CNS(=O)(=O)c1ccc(NC(=O)c2ccc(Cl)cc2Cl)cc1,-2.83%
16,COc1ccc(N2CCN(C(=O)c3cc4nc(C(F)F)cc(C(F)F)n4n3)CC2)cc1,-3.71%
17,O=C(O)CCn1c(=O)c2cc3c(=O)n(CCC(=O)O)c(=O)c3cc2c1=O,12%
18,Cc1ccccc1NS(=O)(=O)c1cccc(C(=O)Nc2ccccc2[N+](=O)[O-])c1,4.82%
19,CCOc1cc2c(cc1OCC)C(c1ccccc1OCC)NCC2 (stereo not drawn),3.57%
20,c1cncc(CNC2Cc3ccccc3C2)c1,-1.81%
21,Cc1ccccc1Cn1c(C(=O)O)c(CNCCN(C)C2CCCCC2)c2ccccc21,-1.44%

# — PMC6919601, “Identification of Plasmodium dipeptidyl aminopeptidase allosteric inhibitors by high throughput screening” (PLoS ONE, 2019)
